Experimental data reported in PubChem BioAssay AID588855 (National Center for Advancing Translational Sciences (NCATS), 2011).
About 5,000 (1.2%) of roughly 410,000 compounds were called active. The inconclusive results got no clear call from the source; some entries with a clear call stand among them for comparison. Calls come from the whole dose curve; as a rule, active = well fitted inhibition curve with a large enough effect; inconclusive = small, poorly fitted or top-dose-only effect; inactive = no such curve, though single readings can be large or run the other way. Potencies beside an inconclusive call are fits to weak or partial responses and may not hold up.

assay: qHTS for Inhibitors of TGF-b; settings: HepG2 CAGA-GFP TGF-b/SMAD3 reporter, GFP fluorescence, 18 h, TGF-beta stimulated, 500 pg/mL final; series mostly up to 46.1 µM; activity, negative = inhibition: at the top concentration; note: nearly all actives have a fitted effect of over 65% in size
Method in brief: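 HEPG2 CAGA-GFP reporter cells (1000/well, DMEM with 1% FBS) received compounds, then recombinant TGF-beta at 500 pg/mL final for 18 hours at 37 degrees C. Per-cell GFP summed per well was normalised to unstimulated and stimulated DMSO controls before curve fitting.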
% is set by controls: 0 for no effect and ±100 for the full control effect; potency is the fitted concentration of half-maximal effect; tags give direction and shape of the fitted curve.

Structure (SMILES)	activity, negative = inhibition	Potency
COc1ccc(CCNC(=O)CSc2nnc(Cc3cccn3C)n2C)cc1OC	inactive: -7.16%	
CCOc1ccc(C(=O)c2cn(CC(=O)Nc3ccc(F)c(F)c3)c3cc4c(cc3c2=O)OCCO4)cc1		inconclusive: 3.55 µM [inhibitor, full curve, poor fit]
COc1ccc(N(CC(=O)NCCSc2ccccc2)S(=O)(=O)c2ccccc2)c(OC)c1		inconclusive: 35.5 µM [inhibitor, partial curve, poor fit]
Cc1ccc2nc(-c3ccccc3)cc(C(=O)N3CCN(c4ccccc4O)CC3)c2c1	inactive: -3.3%	
O=C(c1cc(COc2cccc(C(F)(F)F)c2)on1)N1C[C@H]2CC[C@H]1C2		inconclusive: 31.6 µM [inhibitor, single point]
O=C(CSc1nnc(-c2ccc(Cl)s2)o1)N1CCCc2ccccc21	inactive: 11.4%	
OCCN(CCO)CC(O)COCCC12CC3CC(CC(C3)C1)C2 (configuration not stated)	inactive: 14%	
O=C1/C(=C/c2ccco2)SC(=S)N1CCC(=O)N1CCCCC1CCO (configuration not stated)		inconclusive: 10 µM [inhibitor, partial curve]
CCN(Cc1ccccc1)Cc1c(O)ccc2oc(C)c(C(=O)Nc3ccccc3C)c12		inconclusive: 7.08 µM [inhibitor, partial curve, poor fit]
CCC(C)NC(=O)Cn1c(=O)n(-c2ccc(C)c(C)c2)c(=O)c2c(C)c(C(=O)N(CC)CC)sc21 (configuration not stated)	inactive: 15%	
COc1ccc(C(=O)CC(=O)C(=O)Nc2ccccc2C(F)(F)F)cc1	inactive: -11.4%	
CCOC(=O)C1=CCN(S(=O)(=O)c2ccccc2F)C1c1ccccc1 (configuration not stated)		inconclusive: 7.94 µM [inhibitor, partial curve, poor fit]
c1ccc(-c2onc3cc4c(cc23)OCCO4)cc1		inconclusive: 35.5 µM [inhibitor, single point]
COc1ccc(NC(=O)C2(C)CCN2C(=O)c2ccc(C(C)(C)C)cc2)cc1OC (configuration not stated)		inconclusive: 22.4 µM [inhibitor, single point]
CC(=O)N(C)c1ccc(N=Nc2c(C)[nH]n(-c3ccccc3)c2=O)cc1		inconclusive: 35.5 µM [inhibitor, single point]
O=C(Nc1cccc(Cl)c1)Nc1nccs1		inconclusive: 20 µM [inhibitor, single point]
Cc1cc(C)cc(NC(=S)NCCSc2ccc(Cl)cc2)c1		inconclusive: 17.8 µM [inhibitor, partial curve, poor fit]
CC(C)C[C@H]1CNC(=S)N1C[C@H]1CCCN1C[C@H](Cc1ccc(O)cc1)N1C[C@H](CC(C)C)N(CC2CCCCCC2)C1=S		active: 6.31 µM
O=C(NC(=S)Nc1cccc(NC(=S)NC(=O)c2ccco2)n1)c1ccco1		inconclusive: 0.398 µM [inhibitor, full curve]
Cc1cccc2sc(NNC(=O)C3=COCCO3)nc12	inactive: 41.6%	
CCCC(=O)N1CCN(C2=NS(=O)(=O)c3ccccc32)CC1		inconclusive: 3.55 µM [inhibitor, partial curve, poor fit]
CCOc1ccccc1NC(=O)CSC1=Nc2ccccc2C2=NC(CC(=O)NCc3ccc4c(c3)OCO4)C(=O)N12 (configuration not stated)		inconclusive: 12.6 µM [inhibitor, single point]
CC1CN(S(=O)(=O)c2cccc(C(=O)OCC(=O)c3cccs3)c2)CC(C)O1 (configuration not stated)	inactive: 4.95%	

Structure (SMILES)	activity, negative = inhibition	Potency
Oc1cccc(/C=C/c2ccc3cccc(O)c3n2)c1		inconclusive: 35.5 µM [inhibitor, single point]
Cc1nnc(SCc2cc(=O)[nH]c(N3CCN(C)CC3)n2)s1		inconclusive: 14.1 µM [inhibitor, single point]
CCn1cc(C(=O)OCC(=O)Nc2c(C)cccc2C)c(=O)c2ccc(C)nc21	inactive: -11.7%	
CC1Cc2nc(SCC(N)=O)n(Cc3ccccc3)c(=O)c2S1 (configuration not stated)	inactive: -0.219%	
CC(C)c1ccc(CC(=O)N2CCC2(C)C(=O)NCC(C)(C)C)cc1 (configuration not stated)	inactive: 12.1%	
COc1ccc(C2CC(c3cccs3)=NN2C(=O)CSc2nc3c(cnn3-c3ccccc3)c(=O)[nH]2)cc1 (configuration not stated)	inactive: 2.66%	
O=C(C1=C[C@H](c2csc3ccccc23)C[C@H](OCc2ccc(CO)cc2)O1)N1CCCCCCC1		inconclusive: 25.1 µM [inhibitor, single point]
CCc1ccc(S(=O)(=O)NCc2ccc(C(=O)NCCN(Cc3ccccc3)C(C)C)cc2)cc1		inconclusive: 25.1 µM [inhibitor, single point]
C=CCn1c(NC(C)c2cc(Cl)ccc2O)nc2ccccc21 (configuration not stated)		inconclusive: 35.5 µM [inhibitor, single point]
CC(CC(=O)NCc1ccc(Cl)cc1)S(=O)(=O)c1ccc2c(c1)NC(=O)CO2 (configuration not stated)	inactive: -1.47%	
COc1ccc(C(CCN2CCN(c3ccccc3)CC2)c2c(O)cc(OC)cc2OC)cc1 (configuration not stated)		inconclusive: 20 µM [inhibitor, single point]
NS(=O)(=O)c1ccc(NCc2ccccc2OCc2ccccc2F)cc1		inconclusive: 28.2 µM [inhibitor, single point]
CC(C)=CCC/C(C)=C/CNC(=O)C[C@H]1C[C@H](C(=O)N2CCOCC2)[C@@]2(CCC3CCCC3)c3[nH]c4cc(CCC(=O)N(C)C)ccc4c3CCN2C1=O		inconclusive: 12.6 µM [inhibitor, partial curve, poor fit]
O=C(c1ccco1)c1n[nH]nc1-c1ccccc1		inconclusive: 2.82 µM [inhibitor, single point]
O=C(Nc1cc(-c2ccccc2)nn1-c1ccccc1F)c1ccc([N+](=O)[O-])cc1		inconclusive: 10 µM [inhibitor, single point]
Cc1nn(CC(=O)Nc2ccc(Cl)cn2)c(C)c1Br		inconclusive: 22.4 µM [inhibitor, partial curve, poor fit]
Cc1ccc(S(=O)(=O)NCC(Nc2cccc(Cl)c2)c2ccccc2)cc1 (configuration not stated)		active: 11.2 µM
COc1cc(C2C(C#N)=C(N)Oc3cc(C)oc(=O)c32)cc2c1OCO2 (configuration not stated)	inactive: 7.57%	
C/C(=N\Nc1cccc([N+](=O)[O-])c1)c1cc(F)ccc1O		inconclusive: 20 µM [inhibitor, partial curve, poor fit]
CC(C)c1ccc(Nc2ccc(C(=O)O)cc2[N+](=O)[O-])cc1		inconclusive: 0.1 µM [inhibitor, full curve, poor fit]
CCOc1ccc(CCNC(=O)COC(=O)c2cccs2)cc1OCC	inactive: 18.2%	
O=[N+]([O-])c1ccc(Cl)c(CN2CCN(c3ncccn3)CC2)c1	inactive: -12.7%	
O=C(CSc1ncccn1)n1c2c(c3ccccc31)CCCC2		inconclusive: 35.5 µM [inhibitor, single point]

Structure (SMILES)	activity, negative = inhibition	Potency
CCc1cc(=O)oc2c3c(cc(OCC(=O)Nc4cccnc4)c12)OC(C)(C)CC3	inactive: 24.7%	
CCOC(=O)c1c(-c2ccccc2)oc2ccc(OCC(O)CN(C)C)cc12 (configuration not stated)		active: 14.1 µM
CC(OC(=O)C1CCN(S(=O)(=O)c2ccc(F)cc2)CC1)C(=O)NC1CCCCC1C (configuration not stated)		inconclusive: 3.98 µM [inhibitor, full curve]
COc1ccc(C(=O)Nc2cc(OC)c(Cl)cc2OC)cc1	inactive: -23.2%	
COc1ccc(C(CNC(=O)c2ccco2)N2CCOCC2)cc1 (configuration not stated)	inactive: -2.08%	
COc1ccc(OC)c(Nc2nc(NCc3ccco3)nc(N)c2[N+](=O)[O-])c1		inconclusive: 1.41 µM [inhibitor, full curve, poor fit]
Clc1cccc2c1Sc1ccccc1CC2N1CCNCC1 (configuration not stated)		inconclusive: 35.5 µM [inhibitor, single point]
CC(C)N(C(=O)CSc1nnnn1C1CCCC1)C(C)C	inactive: -2.64%	
Cc1cc(N2CCN(C)CC2)nc2ccc(NC(=O)Nc3ccccc3Br)cc12		inconclusive: 35.5 µM [inhibitor, single point]
COc1ccc(-c2ccc(N(C)C)cc2)cc1C1C2C=CCC(C)C2C(=O)N1Cc1ccccc1 (configuration not stated)	inactive: -2.41%	
CC(C)CN1C(=O)c2ccc(C(=O)Nc3ccc(OCC(=O)O)cc3)cc2C1=O	inactive: -1.05%	
COc1cccc(NS(=O)(=O)c2ccc(-c3coc(C)n3)cc2)c1		inconclusive: 11.2 µM [inhibitor, single point]
COc1ccc(N2CCN(C(=O)CCc3c(C)nc4c(-c5ccccc5)c(C)nn4c3C)CC2)cc1		inconclusive: 17.8 µM [inhibitor, single point]
CN(CC(=O)Nc1cccc(Cl)c1)S(=O)(=O)c1ccc2[nH]c3c(c2c1)CCCC3		inconclusive: 31.6 µM [inhibitor, single point]
O=C(CN1CCOCC1)Nc1ccc([N+](=O)[O-])cc1Br		inconclusive: 35.5 µM [inhibitor, single point]
NC(=O)c1ccc(NC(=O)CSC2=Nc3ccccc3C3CC=NN23)cc1 (configuration not stated)	inactive: -11.3%	
N/C(=N\OC(=O)CC(c1ccccc1)c1ccccc1)c1cccnc1		inconclusive: 12.6 µM [inhibitor, partial curve, poor fit]
O=C(Nc1nc(-c2nc3ccccc3s2)cs1)c1ccc(S(=O)(=O)N2CCOCC2)cc1		inconclusive: 0.178 µM [inhibitor, full curve, poor fit]
CC/C(=N\NC(=S)Nc1ccc(OC)cc1)c1ccc(OC(F)F)cc1	inactive: -29.3%	
Cc1cc(C)c(S(=O)(=O)Nc2ccc[nH]c2=O)c(C)c1		inconclusive: 3.98 µM [inhibitor, partial curve, poor fit]
COc1ccc(-c2nn(-c3ccccc3)cc2C(=O)N2CCN(S(=O)(=O)c3ccccc3[N+](=O)[O-])CC2)cc1		inconclusive: 15.8 µM [inhibitor, single point]
